From patent US20190381086A1, “INHIBITION OF NEDDYLATION USING GLYCYL-tRNA SYNTHETASE INHIBITORS” (The Scripps Research Institute, priority 2015, published 2019) come the findings set out here.

The experiment deals with NCI-H322M. The settings on record: Non-Small Cell Lung Cancer. As to the method: The human tumor cell lines of the cancer screening panel grown in RPMI 1640 medium containing 5% fetal bovine serum and 2 mM L-glutamine. For a typical screening experiment, cells are inoculated into 96 well microtiter plates in 100 μL at plating densities ranging from 5,000 to 40,000 cells/well depending on the doubling time of individual cell lines. After cell inoculation, the microtiter plates are incubated at 37° C., 5% CO2, 95% air and 100% relative humidity for 24 h prior to addition of experimental drugs.
After 24 hours, two plates of each cell line fixed in situ with TCA, to represent a measurement of the cell population for each cell line at the time of drug addition (Tz). Experimental drugs are solubilized in dimethyl sulfoxide at 400-fold the desired final maximum test concentration and stored frozen prior to use. At the time of drug addition, an aliquot of frozen concentrate is thawed and diluted to twice the desired final maximum test concentration with complete medium containing 50 μg/ml gentamicin. […]
Following drug addition, the plates are incubated for an additional 48 h at 37° C., 5% CO2, 95% air, and 100% relative humidity. […] Bound stain is subsequently solubilized with 10 mM trizma base, and the absorbance is read on an automated plate reader at a wavelength of 515 nm. […] Using the seven absorbance measurements [time zero, (Tz), control growth, (C), and test growth in the presence of drug at the five concentration levels (Ti)], the percentage growth is calculated at each of the drug concentrations levels. Percentage growth inhibition is calculated as:
Three dose response parameters are calculated for each experimental agent. […] The drug concentration resulting in total growth inhibition (TGI) is calculated from Ti=Tz. […] Values are calculated for each of these three parameters if the level of activity is reached; however, if the effect is not reached or is exceeded, the value for that parameter is expressed as greater or less than the maximum or minimum concentration tested.

A word on the GI50: it is the concentration that inhibits growth by half. Low readings indicate more potent growth inhibition, high ones less potent growth inhibition.

Molecules are shown by their SMILES.

Compound `NCC(=O)NS(=O)(=O)OC[C@H]1O[C@@H](n2cnc3c(N)ncnc32)[C@H](O)[C@@H]1O` [GlySA, glycylsulfamoyladenosine] gave an LC50/GI50 of 15.1. In addition, growth (Homo sapiens) was halved (GI50) at 1.51 µM. The CC50 (Homo sapiens, read-out: LC50 (the source's name)) was determined as 22.9 µM.
